Measured values from PMC6212790.
Some of the results follow. At the low end of the ranking the order means little.

biological target: T1, GST-Rok-C97-191 (UniProt O34857); experiment: protein binding microarray; details: Rok is a gene silencer of Bacillus subtilis; high values mean tight binding; most listed sequences are background and not binding sites; double strand, one strand shown;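 also: rank score from −0.5 (least bound) to 0.5 (best bound)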
T1 sequence: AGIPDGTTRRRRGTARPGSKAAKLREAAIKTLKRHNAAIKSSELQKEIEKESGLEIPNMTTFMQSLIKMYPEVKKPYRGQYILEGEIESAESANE

Sequence | binding signal [E-score]
GTAGAGCA | -0.0886
GCAGGACA | -0.143
TAGCCGAA | -0.0139
AGCTGGGG | -0.121
GCCCCGGA | -0.457
ACTGGACG | -0.00182
CGCTGGCA | -0.178
AGCTGGTA | 0.183
CCACCGAA | -0.0537
TACTCTGA | -0.259
GCGGGAGA | -0.111
GTATCTAA | 0.262
ATCAGTTC | 0.169
AGTTTTTA | 0.192
CCTGGCAG | -0.155
CCTTACAA | 0.0042
GATTTGGA | 0.0767
AAACGGTA | 0.151
CTTCTCTA | 0.0786
CAGGAGGC | -0.404
AGACGACA | -0.201
AGATTTCA | 0.114
ATGGCGTG | -0.193
AGTTTCAG | 0.072
ACAACTAT | 0.321

Sequence | binding signal [E-score]
GCTGCCAA | 0.0765
CTAGAACC | 0.0221
ACAATTAT | 0.165
ACAGTATG | 0.101
AAGGGGGC | -0.324
AGTCTCGG | -0.0208
ATGTGAGG | -0.25
CAGGCAGA | -0.298
ACTTCCTA | 0.12
AGTTTATG | 0.12
GTTAGCCA | -0.0313
AAGGAGCG | -0.2
GTTTTATA | 0.122
GCAGATCC | -0.137
ATGTATGC | 0.189
CGCTGCGA | 0.0439
ACTGGCTC | -0.203
AAGGCTCG | -0.238
AGCTCACT | -0.0486
CGAACTGA | -0.257
AGTCTTGC | 0.0754
CTAGCTGC | -0.135
ACCTACAA | 0.239
AATGGAGC | -0.00463
ATATGCGA | 0.0698

Sequence | binding signal [E-score]
AACGACCG | -0.087
CATTTTTA | 0.184
AGGGAGAG | -0.246
CACGCAGG | -0.245
AACCTTGC | -0.122
CTATTTCA | 0.0631
AATTTATA | 0.373
AAGACCCG | -0.115
GACTGCCC | -0.275
GCGGGACA | -0.242
AACACGTG | -0.127
AGTGTTGA | 0.0238
CGTCATGC | -0.188
AACGACCT | -0.00857
CTAGGCAG | -0.128
GCATAGTA | 0.253
GCTCCACA | 0.0866
CCTTTAAC | 0.0957
CACTTCCG | -0.0347
AATGACAA | 0.0576
AGTCTGTG | -0.0121
AGAGTCTC | 0.035
AACTGGCT | -0.0274
AGGTTGGG | -0.154
AGATATAT | 0.421

Sequence | binding signal [E-score]
TCCATTAA | 0.048
GTGGTTAA | -0.104
GCGTTAGC | -0.193
CAACGCCG | -0.278
GACGTGAC | 0.0309
CGCCACAC | -0.0118
GGATTTAA | 0.0279
GTCCACCA | -0.25
CGGTCGAG | -0.197
CATTGCGC | 0.0974
AGAAACCC | -0.0576
ATGACATA | 0.0408
CGAGCGGA | -0.206
TGAACCCA | -0.0276
GACCTCGC | -0.261
GGCTTGAC | -0.139
ATAACGAT | 0.285
AAGCGAGC | -0.214
CCTCTGTA | -0.118
ACGCAAAA | 0.118
ATTAGTCC | 0.146
TCATTCAA | 0.0219
CCGAGATC | -0.0194
TACCAGGA | 0.149
GACCGTCC | -0.203

Sequence | binding signal [E-score]
TGGACGAA | -0.0653
GAAGCGTA | -0.00889
TGACGAAA | -0.0112
ATCTTCGG | 0.172
AGTTTATA | 0.278
AGCCCTCG | -0.278
CCGACTAG | 0.0252
CGCATTCA | 0.00763
CATCGTAG | -0.0544
AGGTGCGC | -0.123
ACAGGCGG | -0.187
ACTTTGCA | 0.123
ATCCAATC | 0.0383
AAAAGGTC | 0.0149
AGCGAACT | 0.0463
ATCGACTC | -0.0989
GCAGCTAC | -0.103
CGATGTTC | 0.00806
CATTACGG | -0.0391
ACTTCACC | -0.017
AATATAGC | 0.349
GAACAAGC | 0.0816
AGTCCATG | 0.073
CCGACGAG | -0.156
TATCACAA | 0.147

Sequence | binding signal [E-score]
ACAATCAA | 0.212
TCACGGCA | -0.0376
AACTGTAC | 0.23
AGGAGTCG | -0.139
ATAACTTC | 0.135
TACCCCGA | -0.221
CGCTCGCC | -0.137
AACGGCTT | -0.144
GGTTATTA | 0.0524
CAAGCCCC | -0.307
GCAGTGAA | -0.237
ACCTGCAA | -0.227
CAAGGCAC | -0.192
GCTACAGA | 0.177
GTGGCAGA | -0.33
CGGTCGAA | -0.0134
CATGCCCA | -0.272
AACCTTAC | 0.0393
ACCCGGGC | -0.383
GCGATTAA | -0.181
GACTCCAA | -0.211
ACAACAAA | 0.0164
GAGTGCGA | -0.0836
ACTCGTTC | -0.014
AACAACCT | -0.051

Sequence | binding signal [E-score]
CGTCGTTA | 0.116
ACTGTCCC | -0.124
AATTGATA | 0.269
TATCTAAA | 0.241
GTGTACAC | -0.0467
CGCCGTTC | -0.164
CGAGTTTA | -0.00315
GAACTGAA | -0.135
CACCCATG | -0.343
GGCCTCAA | -0.337
AGGCGTGC | -0.111
GTACCCCA | -0.154
ACCTATCG | 0.0496
AATGCTCC | -0.0736
GTGCCATA | 0.0271
CGAGGCGC | -0.211
AGGGGAAC | -0.131
GGCAAGAA | -0.058
GTCGCTTA | -0.0969
CTTCTTGC | -0.165
CGGAGATA | 0.179
AACTCGAG | 0.112
